Out of some 310,000 compounds screened, about 14,000 (4.5%) showed an effect of 50% or more. Effects have a minus sign here. This is one part of the list.
What follows are compounds tested against human ether-à-go-go-related gene (hERG) potassium channel (human, UniProt Q12809) (assay: primary screen, population patch clamp on CHO cells stably expressing hERG).
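Further: peak tail current of the secondary pulse compared with the same well before compound.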

Chain of human ether-à-go-go-related gene (hERG) potassium channel (Q12809 whole entry, looked up): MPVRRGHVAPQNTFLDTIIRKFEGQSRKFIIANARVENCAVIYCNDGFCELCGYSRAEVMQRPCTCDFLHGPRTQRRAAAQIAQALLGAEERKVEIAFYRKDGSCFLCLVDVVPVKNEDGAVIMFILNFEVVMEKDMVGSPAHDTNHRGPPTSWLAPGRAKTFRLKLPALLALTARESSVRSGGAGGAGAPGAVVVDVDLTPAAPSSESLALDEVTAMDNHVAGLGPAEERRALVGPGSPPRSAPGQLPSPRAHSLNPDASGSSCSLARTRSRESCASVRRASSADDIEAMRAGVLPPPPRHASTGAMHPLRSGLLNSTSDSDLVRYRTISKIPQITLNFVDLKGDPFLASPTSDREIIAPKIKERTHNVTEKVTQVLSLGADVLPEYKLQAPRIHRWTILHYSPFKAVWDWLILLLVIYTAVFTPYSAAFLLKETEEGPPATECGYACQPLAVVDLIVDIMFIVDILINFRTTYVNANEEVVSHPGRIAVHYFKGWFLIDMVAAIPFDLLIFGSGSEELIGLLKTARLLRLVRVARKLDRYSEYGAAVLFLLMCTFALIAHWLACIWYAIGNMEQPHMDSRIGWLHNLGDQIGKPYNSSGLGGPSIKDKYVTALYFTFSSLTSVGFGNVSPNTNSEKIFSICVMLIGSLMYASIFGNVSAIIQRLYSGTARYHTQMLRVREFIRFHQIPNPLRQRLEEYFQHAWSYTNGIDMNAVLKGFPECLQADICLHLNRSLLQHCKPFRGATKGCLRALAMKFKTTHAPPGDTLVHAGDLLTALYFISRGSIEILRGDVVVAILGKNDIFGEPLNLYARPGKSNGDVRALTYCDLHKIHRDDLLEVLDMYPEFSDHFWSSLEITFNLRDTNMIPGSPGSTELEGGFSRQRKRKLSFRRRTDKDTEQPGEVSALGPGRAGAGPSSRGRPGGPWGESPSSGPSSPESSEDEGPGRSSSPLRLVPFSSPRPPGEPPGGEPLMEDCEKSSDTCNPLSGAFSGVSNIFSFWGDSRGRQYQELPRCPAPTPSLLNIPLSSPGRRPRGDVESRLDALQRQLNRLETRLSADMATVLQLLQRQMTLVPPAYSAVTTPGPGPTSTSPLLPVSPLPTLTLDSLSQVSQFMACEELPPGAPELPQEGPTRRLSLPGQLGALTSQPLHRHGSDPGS

Structure (SMILES)	hERG current change (%, negative = inhibition) at 10uM
CCOC(=O)C[C@H]1c2ccc(C(F)(F)F)cc2S(=O)(=O)N1Cc1ccccc1	-28.8%
C[C@H]1CN=C(Nc2ccccc2)N1CCCC1CCCCC1	-62.2%
O=C(C1CC(=O)N(C2CCCC2)C1)N1CCC(Cc2ccccc2)CC1 (centres unmarked)	-24.4%
CCOc1ccccc1CN1CCNC(=O)C1CC(=O)NCc1nc(C)cs1 (centres unmarked)	-28.1%
O=C(NC(=S)NC(CO)Cc1ccccc1)c1ccc(F)cc1 (centres unmarked)	10.2%
O=C(Nc1ccccc1)c1ccccc1NC(=O)[C@H]1CCCC[C@H]1C(=O)O	18.8%
Cc1cc(C(=O)Nc2ccccc2)c2ccccc2n1	12.2%
COCCNC(=S)Nc1ccc(N2CCCCC2)cc1	0.421%
COc1ccc(N2CC(C(=O)N3CCN(c4ccccc4F)CC3)CC2=O)cc1 (centres unmarked)	-29.3%
Clc1ccccc1Sc1cnc2ccccc2n1	-23.4%
Cc1ccc(CSCC2Nc3ccc(C(=O)N4CCN(c5ccc(F)cc5)CC4)cc3NC2=O)cc1 (centres unmarked)	16.5%
CCOc1ccc(OCC)c(S(=O)(=O)n2cnc(C)c2)c1	4.89%
CCNc1nc(NC(C)C)nc(Oc2ccc(OCc3ccccc3)nn2)n1	-9.37%
COc1ccc(-c2ccc3nnc(SCC(=O)Nc4ccc(NC(C)=O)cc4)n3n2)cc1	6.82%
CCCCCCC12CCC(C(=O)O)(CC1)CC2	-5.84%
CNC(=S)NNC(=O)c1oc2nc(-c3ccccc3)cc(C)c2c1N	-33.2%
COc1ccc(CC(=O)NC(=S)NNC(=O)COc2c(C)cccc2C)cc1	6.52%
O=C(NCc1ccco1)c1cc(-c2cccs2)nc2ccccc12	-1.68%
O=C(O)CCC1COc2ccccc2O1 (centres unmarked)	15.6%
CCc1ccc(NC(=O)c2ccc(Cn3cc([N+](=O)[O-])cn3)cc2)cc1	8.86%
COc1ccc(S(=O)(=O)N(CC(=O)Nc2cccnc2)c2ccccc2OC)cc1	-9.68%
CN(Cc1ccccc1)S(=O)(=O)c1ccc(OCC(=O)Nc2cccc([N+](=O)[O-])c2)cc1	-9.01%

Structure (SMILES)	hERG current change (%, negative = inhibition) at 10uM
CCOC(=O)c1c(C)[nH]c(C)c1S(=O)(=O)N(C)Cc1ccco1	10%
COC(=O)c1cccc(NC(=O)NC23CC4CC(CC(C4)C2)C3)c1	0.641%
Cc1noc2ncnc(Sc3ccc(Br)cc3)c12	-50.8%
CCn1c(C)cc(=O)cc1-c1ccc(Cl)cc1	10.8%
CN(C(=O)NC(=O)C1=C(N2CCOCC2)/C(=C/c2ccccc2)CC1)S(C)(=O)=O	-1.97%
CCOc1ccc(C2C(C#N)=C(N)Oc3cc(O)ccc32)cc1OCC (centres unmarked)	-5.59%
O=C(Nc1nccs1)c1ccc2nccnc2c1	12.6%
CN1C(=O)c2ccc(C(=O)Nc3nccs3)cc2C1=O	-20.7%
Cc1ccc(SCc2cc(=O)[nH]c(N3CCN(Cc4ccccc4)CC3)n2)cc1	5.84%
COCCNC(=O)c1c(NC(=O)c2ccco2)n(Cc2ccccc2)c2nc3ccccc3nc12	-16.9%
COc1cc2sc3ccc(C#CC4(O)CCCCC4)cc3c(=O)c2cc1OC	12.3%
O=C1NC(c2ccc(O)cc2)Nc2ccccc21 (centres unmarked)	0.853%
O=C(CN(c1ccc(F)cc1)S(=O)(=O)c1ccccc1)NC1CC2CCC1C2 (centres unmarked)	19.5%
Cc1nnc(SCc2nc3ccccc3nc2C)s1	7.14%
Cc1ccc(-c2nnn(CC(=O)N(CCO)C(C(=O)NC3CCCC3)c3ccc(F)cc3)n2)o1 (centres unmarked)	-1.1%
Cc1ccc(NC(=S)NC2CC3CCCC(C2)N3Cc2ccco2)cc1 (centres unmarked)	-52.8%
COc1cc(CNCc2cccs2)ccc1OCC(N)=O.Cl	-3.77%
O=C(O)COc1ccc(Br)cc1CP(=O)(c1ccccc1)c1ccccc1	-0.404%
COc1ccc(-c2cc(C(=O)OC3CCOC3=O)c3ccccc3n2)cc1 (centres unmarked)	7.24%
O=C(Nc1nccs1)C1CCN(S(=O)(=O)c2ccc3c(c2)OCCCO3)CC1	-5.57%
COc1nc(N(c2ccccc2)c2ccccc2)nc(-n2ccnc2)n1	-44.9%
COc1ccc(C(=O)NC(=S)N2CCOCC2)cc1[N+](=O)[O-]	-3.56%

From article PMC4336329 (PLoS ONE, 2015)
